Results published in PMC4336329 (PLoS ONE, 2015).
Hit rate of the full screen: of about 310,000 compounds, about 2,200 (0.71%) showed an effect of 50% or more. The effect is printed as a negative number. The list shows a part of the results.

target: human ether-à-go-go-related gene (hERG) potassium channel (human, UniProt Q12809); assay: primary screen, population patch clamp on CHO cells stably expressing hERG
Sequence (Q12809 whole entry, looked up): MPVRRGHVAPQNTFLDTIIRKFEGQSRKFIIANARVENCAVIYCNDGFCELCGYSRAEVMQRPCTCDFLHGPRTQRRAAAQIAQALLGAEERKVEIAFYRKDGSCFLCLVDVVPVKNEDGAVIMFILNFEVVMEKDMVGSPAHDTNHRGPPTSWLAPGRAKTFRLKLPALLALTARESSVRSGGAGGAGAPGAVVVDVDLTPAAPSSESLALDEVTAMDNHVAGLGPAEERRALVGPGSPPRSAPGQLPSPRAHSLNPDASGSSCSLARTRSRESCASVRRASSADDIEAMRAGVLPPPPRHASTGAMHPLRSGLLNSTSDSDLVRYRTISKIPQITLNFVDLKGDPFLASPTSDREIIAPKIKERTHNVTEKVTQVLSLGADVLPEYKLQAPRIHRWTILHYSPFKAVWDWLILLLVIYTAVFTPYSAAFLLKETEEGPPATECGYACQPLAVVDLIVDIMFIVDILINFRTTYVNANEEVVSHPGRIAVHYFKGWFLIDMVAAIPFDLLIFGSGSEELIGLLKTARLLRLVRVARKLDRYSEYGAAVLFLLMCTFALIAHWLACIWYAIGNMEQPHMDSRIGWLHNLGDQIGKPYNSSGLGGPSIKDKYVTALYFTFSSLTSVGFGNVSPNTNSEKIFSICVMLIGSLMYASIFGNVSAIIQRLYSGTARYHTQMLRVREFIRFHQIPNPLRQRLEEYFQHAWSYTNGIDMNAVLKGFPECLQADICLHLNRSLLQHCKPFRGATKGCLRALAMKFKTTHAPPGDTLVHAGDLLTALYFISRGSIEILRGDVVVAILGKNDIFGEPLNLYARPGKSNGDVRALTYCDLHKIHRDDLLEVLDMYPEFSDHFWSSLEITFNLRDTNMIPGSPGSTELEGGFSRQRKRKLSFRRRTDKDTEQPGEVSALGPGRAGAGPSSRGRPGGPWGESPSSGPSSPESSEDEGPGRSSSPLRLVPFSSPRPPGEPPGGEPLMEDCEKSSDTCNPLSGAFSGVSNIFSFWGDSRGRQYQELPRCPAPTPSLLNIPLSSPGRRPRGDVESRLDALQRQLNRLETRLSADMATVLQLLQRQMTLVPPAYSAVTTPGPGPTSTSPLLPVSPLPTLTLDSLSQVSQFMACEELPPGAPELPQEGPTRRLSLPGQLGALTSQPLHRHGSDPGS

First: Cc1ccc(S(=O)(=O)c2nc(-c3ccco3)oc2NCC2CCCO2)cc1 (stereo not shown)
Second: Cc1ccc(C(=O)NCCc2ccc(S(=O)(=O)N3CCCC3)cc2)cc1
The “hERG current change (%, negative = inhibition) at 1uM” value of the first is lower: 6.32% for the first, 17.8% for the second.

Compared with `CCN1CCCC1CNC(=O)c1cc(S(=O)(=O)CC)c(N)cc1OC` (stereo not shown), `CCOC(=O)C1CCN(c2ncnc3cc(OC)c(OC)cc23)CC1` is higher in “hERG current change (%, negative = inhibition) at 1uM” value: 0.395% for the first, 5.75% for the second.

Going from `Cc1onc(-c2c(Cl)cccc2Cl)c1C(=O)N1CCc2ccccc21` to `Cc1[nH]c(C)c(S(=O)(=O)Nc2ccccc2Cl)c1C(=O)N1CCCC1`, the “hERG current change (%, negative = inhibition) at 1uM” value rises from -0.407% to 16.6%.

Going from `O=C1NCCN(Cc2ccc(F)cc2)C1CC(=O)N1CC=C(c2ccccc2)CC1` (stereo not shown) to `CC(=O)Nc1nc2n(n1)C(c1ccc(F)cc1)C=C(c1ccccc1)N2` (stereo not shown), the “hERG current change (%, negative = inhibition) at 1uM” value falls from 14.1% to 10.2%.

Compared with `Nc1nccnc1C(=O)OCC(=O)NC1CCCc2ccccc21` (stereo not shown), `COc1ccc(CNC2CCCc3ccccc32)c(OC)c1` (stereo not shown) is lower in “hERG current change (%, negative = inhibition) at 1uM” value: 13.2% for the first, 1.49% for the second.

First: CCCNC(=O)Nc1ccc(C)cc1C
Second: Cc1ccc(N=CNc2ccc(C)cc2C)c(C)c1
The “hERG current change (%, negative = inhibition) at 1uM” value of the first is lower: 14.2% for the first, 14.3% for the second.

Going from `Cl.N=c1sccn1CC(=O)NC(c1ccccc1)c1ccccc1` to `CCOC(=O)C(c1ccccc1)C(Nc1ccc(F)cc1)c1ccccn1` (stereo not shown), the “hERG current change (%, negative = inhibition) at 1uM” value rises from -19.7% to 11.8%.

Compared with `Cc1cccc(C(=O)Nc2ccnc(-c3cccnc3)n2)c1`, `CC1CN(S(=O)(=O)c2ccc(C(=O)Nc3nnc(-c4ccccn4)o3)cc2)CC(C)O1` (stereo not shown) is lower in “hERG current change (%, negative = inhibition) at 1uM” value: 6.86% for the first, 4.53% for the second.

First: COc1ccc(/C=N/Nc2nnc(-c3ccccc3)c(=O)[nH]2)cc1
Second: CCSC1=N/C(=C\c2ccccc2)C(=O)N1c1ccc(OC)cc1
The “hERG current change (%, negative = inhibition) at 1uM” value of the first is lower: 5.63% for the first, 6.33% for the second.

Compared with `CN(CC(=O)Nc1ccc(Cl)cc1)C1CCCCC1`, `Cc1ccc(NC(=O)C2CCN(C(=O)c3cccs3)CC2)cc1` is lower in “hERG current change (%, negative = inhibition) at 1uM” value: 10.1% for the first, 8.9% for the second.

Going from `O=S(=O)(Nc1cccc2cccnc12)c1ccc(S(=O)(=O)N2CCCC2)cc1` to `O=C(NCc1ccc2[nH]c3c(c2c1)CCCC3)c1ccc(S(=O)(=O)N2CCCCC2)cc1`, the “hERG current change (%, negative = inhibition) at 1uM” value rises from 1.07% to 14.5%.

Compared with `CC(C)c1cc(NC(=O)CCl)on1`, `Cc1cc(NC(=O)CSc2nnc(C)c(=O)n2N)no1` is lower in “hERG current change (%, negative = inhibition) at 1uM” value: 14.6% for the first, 8.28% for the second.

Going from `Cc1ccc(S(=O)(=O)N2CCC(C(=O)NNC(=O)c3ccccc3)CC2)cc1` to `O=C(NCc1ccc2c(c1)OCO2)C1CCN(c2ccc(S(=O)(=O)N3CCCC3)cc2)CC1`, the “hERG current change (%, negative = inhibition) at 1uM” value falls from 5.1% to -0.495%.

Going from `Cl.O=C(OCC1CCNCC1)c1ccc2c(c1)OCO2` to `CCOC(=O)c1nn(-c2ccc3c(c2)OCCO3)cc1O`, the “hERG current change (%, negative = inhibition) at 1uM” value falls from 16.5% to 5.16%.

Going from `Cc1ccc(CCN2CC(C(=O)NCCc3ccccc3)CC2=O)cc1` (stereo not shown) to `S=C(NCCc1ccncc1)Nc1cccc2ccccc12`, the “hERG current change (%, negative = inhibition) at 1uM” value falls from 30.3% to 10.2%.

First: O=NNc1nc2ccccc2n1Cc1ccccc1
Second: COC(=O)C1CN(C(=O)COc2ccccc2)c2ccccc2O1 (stereo not shown)
The “hERG current change (%, negative = inhibition) at 1uM” value of the first is lower: 1.88% for the first, 12.2% for the second.

First: CCN(CC(=O)Nc1c(F)cccc1F)C(=O)c1cc(C)oc1C
Second: Cc1cc(C)n(CC(=O)NNC(=O)CCCOc2ccc(Cl)c(C)c2)n1
The “hERG current change (%, negative = inhibition) at 1uM” value of the first is lower: 2.77% for the first, 9.81% for the second.

First: Cc1ccc(S(=O)(=O)N(C)C)cc1NC(=O)COC(=O)c1ccc2c(=O)n3c(nc2c1)CCC3
Second: Cc1ccc(NC(=O)CCc2nc3ccccc3c(=O)[nH]2)cc1S(=O)(=O)N1CCOCC1
The “hERG current change (%, negative = inhibition) at 1uM” value of the first is lower: 6.83% for the first, 18.4% for the second.

Compared with `C=CCn1c(C(CC)CC)nc2ccccc21`, `C=CCn1c(CCNC(=O)c2ccccc2F)nnc1SCc1nc2ccccc2c(=O)[nH]1` is lower in “hERG current change (%, negative = inhibition) at 1uM” value: 11.2% for the first, -3.35% for the second.

Going from `CC1CCN(CCc2nc3cc(NS(=O)(=O)c4ccccc4)ccc3n2C)CC1` to `Cc1ccc2nsnc2c1S(=O)(=O)N1CCN(CCc2ccccc2)CC1`, the “hERG current change (%, negative = inhibition) at 1uM” value rises from -53.3% to 4.91%.

Compared with `Cc1ccc(-c2cc(C(=O)NCc3cn(C)nc3C)c3cc(Br)ccc3n2)cc1`, `CCOC(=O)C1CCN(Cc2cn(C)nc2-c2ccc(Oc3ccccc3)cc2)CC1` is lower in “hERG current change (%, negative = inhibition) at 1uM” value: 7.49% for the first, 5.24% for the second.

Going from `O=C(COc1ccc(F)cc1)N1CCCCCCC1` to `CSC1=NCCN1C(=O)Cc1ccc(F)cc1`, the “hERG current change (%, negative = inhibition) at 1uM” value falls from 17.4% to 1.07%.

Compared with `CCN(CC)C(=O)/C(=C/c1cn(S(=O)(=O)N(C)C)c2ccccc12)NC(=O)c1ccc(OC)cc1`, `COc1ccc(C(=O)Nc2cccc(C(C)=O)c2)cc1S(=O)(=O)N1CCOCC1` is lower in “hERG current change (%, negative = inhibition) at 1uM” value: 11.8% for the first, 1.24% for the second.

First: COc1ccc(-c2nn3c(-c4ccco4)nnc3s2)cc1OC
Second: COc1ccc(C2NC(=O)C(=O)/C2=C(\O)c2ccc(Cl)cc2)cc1OC (stereo not shown)
The “hERG current change (%, negative = inhibition) at 1uM” value of the first is lower: -15.4% for the first, 7.56% for the second.

Going from `S=c1[nH]nc(COc2ccccc2)n1/N=C/c1ccc(Cl)cc1Cl` to `O=C(COc1ccccc1)NCc1cccs1`, the “hERG current change (%, negative = inhibition) at 1uM” value falls from 9.09% to 4.09%.

First: Cc1cnc(NC(=O)CN2CCN(c3ccccc3F)CC2)s1.Cl
Second: CCN1CCN(CC(=O)Nc2sc3c(c2C#N)CCC(C)C3)CC1 (stereo not shown)
The “hERG current change (%, negative = inhibition) at 1uM” value of the first is higher: 19.2% for the first, -15% for the second.

Going from `CCOC(=O)NC(=O)COC(=O)c1ccc(Sc2ncn[nH]2)c([N+](=O)[O-])c1` to `CCOC(=O)c1cnc(SCC(=O)Nc2ccc(NC(=O)CC)c(OC)c2)nc1N`, the “hERG current change (%, negative = inhibition) at 1uM” value falls from 17.7% to 7.77%.

Compared with `NC(=O)N/N=C/c1cc(Br)ccc1OC(=O)c1ccccc1`, `O=C(NNC(=O)C1CC1c1ccccc1)c1ccccc1F` (stereo not shown) is higher in “hERG current change (%, negative = inhibition) at 1uM” value: 17.1% for the first, 23.1% for the second.

Going from `CCOc1cc(C2Nc3ccccc3NC3=C2C(=O)CC(C)(C)C3)ccc1OC(C)=O` (stereo not shown) to `O=C1CCCC2=C1C(c1cccnc1)Nc1ccccc1N2` (stereo not shown), the “hERG current change (%, negative = inhibition) at 1uM” value rises from 7.51% to 10.5%.

Going from `Cc1ccc(Cl)cc1N1CCN(S(=O)(=O)c2ccc3c(c2)OCCO3)CC1` to `COc1ccc(C(=O)N2CCN(c3cccc(Cl)c3)CC2)cc1S(=O)(=O)NC1CC1`, the “hERG current change (%, negative = inhibition) at 1uM” value falls from 17.1% to -79.6%.

Going from `CC(=O)Nc1ccc(NC(=O)CSc2nc3nc(C)cc(C)c3c(=O)[nH]2)cc1` to `COc1ccc(NC(=O)CNS(=O)(=O)c2cccs2)cc1`, the “hERG current change (%, negative = inhibition) at 1uM” value falls from 12.8% to 7.23%.

Going from `O=C(CCSCCc1ccccn1)Nc1ccc(Cl)cn1` to `Cc1cc(NC(=O)C2CCC2)n(-c2ccccn2)n1`, the “hERG current change (%, negative = inhibition) at 1uM” value rises from -7.62% to 9.33%.

Going from `COc1ccc2[nH]cc(CCN=C(N)N)c2c1.I` to `COC(=O)c1cc(C)nc(Sc2ccccc2N)n1`, the “hERG current change (%, negative = inhibition) at 1uM” value rises from 11% to 11.6%.

Compared with `O=c1oc2ccccc2cc1-c1csc(Nc2ccc(O)cc2)n1`, `O=C(Nc1cc(Cl)ccc1N1CCOCC1)c1cc2ccccc2o1` is lower in “hERG current change (%, negative = inhibition) at 1uM” value: 14.7% for the first, 8.14% for the second.

Compared with `CCOC(=O)COc1ccccc1/C=C1\NC(=O)NC1=O`, `CCOc1ccc(CO/N=C/c2c(C)[nH]c(=O)[nH]c2=O)cc1` is higher in “hERG current change (%, negative = inhibition) at 1uM” value: 3.95% for the first, 14.2% for the second.

Going from `COc1ccc(-c2nc(CSCC(=O)N3CCC4(CC3)OCCO4)c(C)o2)cc1OC` to `COc1cc2ccccc2cc1C(=O)N1CCN(C)CC1.Cl`, the “hERG current change (%, negative = inhibition) at 1uM” value falls from 7.31% to 1.81%.

Going from `CSc1cccc(NC(=S)N(CCC(C)C)C2CCN(C(C)C)CC2)c1` to `CC(C)C[C@H](NC(=O)N1CC(=O)Nc2ccccc21)C(=O)N1CCC(C(=O)O)CC1`, the “hERG current change (%, negative = inhibition) at 1uM” value rises from -3.15% to 19%.

First: Cc1cnc(C(=O)N2CCCC(C(=O)c3ccc(C(F)(F)F)cc3)C2)cn1 (stereo not shown)
Second: OC(c1ccccc1)(c1ccc(Cl)cc1)C1CN2CCC1CC2 (stereo not shown)
The “hERG current change (%, negative = inhibition) at 1uM” value of the first is higher: -0.362% for the first, -11.9% for the second.

Going from `CC(C)c1ccc(N(CC(=O)NCCSC(C)(C)C)S(C)(=O)=O)cc1` to `CCOc1ccc(C(=O)NCC(=O)OC2CCOC2=O)cc1OCC` (stereo not shown), the “hERG current change (%, negative = inhibition) at 1uM” value rises from 8.69% to 12.5%.

First: CC(O)[C@H]1CC[C@H]2[C@@H]3CC[C@H]4C[C@@H](O)CC[C@]4(C)[C@H]3C(=O)C[C@]12C (stereo partly shown)
Second: CC(=O)C1(O)C(C)CC2C3CCC4CC(O)CCC4(C)C3=CCC21C (stereo not shown)
The “hERG current change (%, negative = inhibition) at 1uM” value of the first is lower: -13.2% for the first, 13.6% for the second.

First: COc1ccccc1NC(=O)Cn1nnc(C(=O)NCc2ccc3c(c2)OCO3)c1N
Second: COc1cc2cc(CN(Cc3cccnc3)C(=O)NCc3ccccc3)c(=O)[nH]c2cc1OC
The “hERG current change (%, negative = inhibition) at 1uM” value of the first is lower: 4.97% for the first, 8.58% for the second.

Going from `Cc1ccc(Cl)c(NC(=O)CN2CCNC(=O)C2)c1Cl` to `CN(C)C=O.O=C(/C=C/c1cccs1)Nc1ccc(N2CCOCC2)c(S(=O)(=O)Nc2cc(Cl)ccc2Cl)c1`, the “hERG current change (%, negative = inhibition) at 1uM” value rises from 6.94% to 13.4%.

First: C/C=C(/C)C(=O)O[C@@H]1c2cc3c(c(OC)c2-c2c(cc(OC)c(OC)c2OC)[C@@H](OC(C)=O)[C@@H](C)[C@H]1C)OCO3
Second: COc1ccc(N/C=C2\C(=O)c3c(sc(C)c3C)N(C)S2(=O)=O)cc1
The “hERG current change (%, negative = inhibition) at 1uM” value of the first is lower: 3.17% for the first, 11.6% for the second.

Going from `Cc1nc(N2CCOCC2)sc1C(=O)NN` to `CCOC(=O)N1CCc2c(sc3nc4n(c(=O)c23)N=C(C)CS4)C1`, the “hERG current change (%, negative = inhibition) at 1uM” value falls from 11.6% to 2.24%.
